The results in this text go back to PubChem BioAssay AID1346428 (National Center for Advancing Translational Sciences (NCATS), 2018).

In all, about 48,000 compounds went through this assay and about 1,200 (2.5%) were called active. About 2% were inconclusive and are not listed.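 Rule for the calls: active = activation of at least 60% and not above a set upper limit (about 1 call in 100 departs from these limits); inconclusive = activation of 40% to 60%, or above that upper limit; inactive = activation under 40%.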 This is one part of the list.

For the assay, the target named is Probable G-protein coupled receptor 32 (Homo sapiens) (UniProt O75388). The assay is described as follows: qHTS for Agonists of Human Resolvin D1 Receptor DRV1. Note: 0% is about no effect. As to conditions: CHO-K1 GPR32 beta-arrestin PathHunter luminescence, 90 min; at 76.9 µM; stronger effect = higher value; zero percent set by DMSO-only wells. The method in brief: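 Agonism was scored by beta-Gal fragment complementation (chemiluminescent read, 1 h detection at ambient temperature) reporting beta-arrestin binding to GPR32 in engineered CHO-K1 cells. Compound treatment lasted 90 min at 37 C, normalized to a DMSO basal control.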
Sequence of UniProt O75388 (O75388 whole entry, looked up, the tested form may be a part): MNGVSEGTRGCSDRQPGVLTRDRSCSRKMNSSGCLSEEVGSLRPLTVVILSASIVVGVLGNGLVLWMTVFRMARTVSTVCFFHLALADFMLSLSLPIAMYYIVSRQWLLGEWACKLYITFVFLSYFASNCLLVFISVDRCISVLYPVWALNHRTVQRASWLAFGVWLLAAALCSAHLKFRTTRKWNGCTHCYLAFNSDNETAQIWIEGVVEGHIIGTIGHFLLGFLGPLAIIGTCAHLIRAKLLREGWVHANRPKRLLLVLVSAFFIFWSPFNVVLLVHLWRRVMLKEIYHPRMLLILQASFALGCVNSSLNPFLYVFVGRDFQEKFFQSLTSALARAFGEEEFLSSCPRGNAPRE
For the molecule `O=C(Nc1ccc(F)cc1)Nc1csc2c1CCCC2`, the activation was inactive: 7.02%.
Take `CCOc1ccc(-n2c(=O)c3c4c(sc3n(CC(=O)NC(C)CC)c2=O)CCCCC4)cc1` (centres undefined): the activation is inactive: -2.85%.
In the case of `C[C@@H]1CCC[C@H](C)N1`, the activation was inactive: -12.7%.
Under `CCOc1ccc2nc(NC(=O)c3nc(SCc4ccccc4F)ncc3Cl)sc2c1` stands inactive: 1.69%; under `Cc1cc(C)cc(-n2c(SCC(=O)Nc3ccccc3)nc3c(oc4ccccc43)c2=O)c1`, inactive: -27.9%; under `Cc1ccc(-n2nc3c(=O)n(C(C)C(=O)NCc4ccc(OC(C)C)cc4)nc(C)c3c2C)cc1` (centres undefined), inactive: -2.29%.
Regarding `CCC(Cc1ccccc1)NC(=O)Cn1nc(C)n2c(cc3occc32)c1=O` (centres undefined), the activation is inactive: -9.46%.
`O=C(NCc1ccc(Cl)cc1)C1CCN(S(=O)(=O)c2cccc3nonc23)CC1`: the activation was inactive: -9.96%.
As to `CCCCn1c(=O)n(CC2CCC(C(=O)NCCCOC)CC2)c(=O)c2sccc21` (centres undefined), the activation was inactive: 1.36%.
Under `COc1cc(OC)cc(-c2nc3nc(C)c(CCC(=O)Nc4cc(C)cc(C)c4)c(C)n3n2)c1` stands inactive: -1.77%; under `CC(C)Cn1cc(NC(=O)N2CCN(c3ccc(F)cc3)CC2)c2ccccc2c1=O`, inactive: -20%.
Take `CC(=O)c1ccc(NC(=O)CSC2=Nc3ccccc3N=C(c3ccc(F)cc3)C2)cc1`: the activation was inactive: -16.3%.
Regarding `Cc1cc(=O)[nH]c2nnc(SCc3ccc(Cl)cc3Cl)n12`, the activation was inactive: 6.18%.
With `CC(=O)c1cccc(NC(=O)c2sc(-n3nc(C)c(Cc4ccccc4)c3C)nc2C)c1`, the activation was inactive: 6.88%.
The same measure for `CCCS(=O)(=O)N1CC(=O)N(c2cccc(Cl)c2)C(C)(C(=O)NC2CCCCC2)C1` (centres undefined): inactive: -14.2%; for `COc1cccc(-c2cc(C(=O)NCCc3ccc(OC)c(OC)c3)no2)c1`: inactive: 7.65%; for `O=C(Cn1c(SCc2ccc(F)cc2)nc2cccnc21)Nc1ccccc1F`: inactive: -3.42%.
`COCCNC(=O)c1ccc2c(c1)N(Cc1cc(C)ccc1C)C(=O)c1ccccc1S2=O` (centres undefined): the activation was inactive: -34.2%.
Under `Cc1ccc2nc(COc3cccc(NC(=O)Nc4ccc(C)c(Cl)c4)c3)cc(=O)n2c1` stands inactive: 0.816%; under `Cc1ccc2c(CNC3CCCCC3)c(C(=O)O)n(Cc3ccc(F)cc3)c2c1`, inactive: 13.5%; under `COc1cccc2cc(-c3nc(-c4ccccc4F)no3)c(=O)oc12`, inactive: -0.534%.
The same measure for `CCOc1ccccc1CNC(=O)c1cc2c(=O)n(Cc3cccnc3)ccc2nc1C`: inactive: -11.8%; for `O=C(Nc1ccc(F)c(Cl)c1)c1ccc2c(Cl)c3c(nc2c1)CCCC3`: inactive: 14.6%.
Regarding `CCC(=O)N1CCc2cc(Br)cc(S(=O)(=O)NCCc3cccc(C)c3)c21`, the activation was inactive: -2.52%.
In the case of `O=C(O)c1cc(=O)c2c(Cl)cc(Cl)cc2[nH]1`, the activation was inactive: 4.79%.
For the molecule `Cc1cccc(C(=O)Nc2cc3c(cc2C)n(C)c(=O)n3C)c1`, the activation was inactive: -9.2%.
Consider `Cc1cc(C)c2nc(C)cc(Nc3cccc(C(=O)O)c3)c2c1`, for which the activation is inactive: -10.9%.
Under `CCOc1cc(C(=O)Nc2cc3c(cc2N2CCCC2)n(C)c(=O)c(=O)n3C)cc(OCC)c1OCC` stands inactive: 26.2%.
For the molecule `Cc1nnc(N2CCN(C(=O)NCCC(C)C)CC2)c2nn(-c3ccc(Cl)cc3)c(C)c12`, the activation was inactive: -8.95%.
Turning to `CCc1ccc(S(=O)(=O)Nc2cccc(-c3ccc(N4CCCCC4)nn3)c2)s1`, the activation was inactive: -7.99%.
As for `O=C1C(c2ccc(F)cc2)N(CCc2ccc(Cl)cc2)C(=O)CN1C1CCCCC1` (centres undefined), the activation is inactive: -17.3%.
In the case of `O=C(Nc1sc2c(c1C(=O)NCc1ccco1)CCCC2)c1cc(=O)c2cc(Cl)ccc2o1`, the activation was inactive: 5.96%.
For the molecule `COc1ccc(NC(=O)Nc2cc(-c3cn4cccnc4n3)ccc2C)cc1`, the activation was inactive: 18.2%.
Take `O=C(NC1CCN(Cc2ccccc2)CC1)c1ccc(Cn2c(=O)c3ccccc3n(Cc3ccc(Cl)cc3)c2=O)cc1`: the activation was inactive: 5.22%.
On to `CC(=O)N1CCc2c(sc3c2c(=O)n(-c2ccccc2)c(=O)n3CC(=O)c2ccccc2)C1`, for which the activation was inactive: 2.42%.
The same measure for `COc1ccccc1NC(=O)Cn1c(C)cc(C)c(C#N)c1=O`: inactive: 7.07%; for `O=C(CCCCn1c(=O)c2ccccc2n(Cc2cccc(F)c2)c1=O)NCCc1ccccc1`: inactive: -5.68%.
As to `Cc1ccc(C)c(NC(=O)CN2C(=O)CCc3cc(S(=O)(=O)N4CCCCC4)ccc32)c1`, the activation is inactive: -5.72%.
`CC(=O)N1CCC(N(Cc2ccc(C)o2)C(=O)Nc2cccc(C(F)(F)F)c2)CC1`: the activation is inactive: 23.3%.
As to `Cc1ccc2c(c1)-c1nc(-c3ccc4c(c3)NC(=O)CO4)cc(-c3ccccc3)c1CO2`, the activation is inactive: -1.65%.
As for `NS(=O)(=O)c1cc2c(cc1Cl)CN(C1CCCCC1)C2=O`, the activation is inactive: -29.8%.
Regarding `Cc1ccc(Cn2c(=O)n(Cc3ccccc3)c(=O)c3oc4ccccc4c32)cc1`, the activation is inactive: -8.89%.
`CC(=O)Nc1ccc(NC(=O)c2ccc3c(c2)N(Cc2cccc(Cl)c2)C(=O)c2ccccc2S3=O)cc1` (centres undefined): the activation is inactive: -16%.
Regarding `COCc1nc2ccccc2n1Cc1ccc(C(C)(C)C)cc1`, the activation was inactive: -3.84%.
Take `CC(=O)N1CCc2cc(S(=O)(=O)NC(Cc3ccccc3)C(=O)NCc3ccccc3)ccc21` (centres undefined): the activation was inactive: 6.79%.
Under `O=C(CC1N=C2c3ccccc3N=C(SCc3ccc(F)cc3)N2C1=O)NCCc1ccccc1` (centres undefined) stands inactive: -16%.
Take `Cc1cccc(Cn2c(-c3ccccc3)nc3ccccc32)c1`: the activation was inactive: -82.2%.
Turning to `O=C(CSc1nccn1-c1ccc(F)cc1)Nc1nc2ccccc2s1`, the activation is inactive: -10.7%.
The same measure for `COc1ccc2[nH]c3c(c2c1)CCN(C(=O)CCC1CCCC1)C3c1ccc(F)cc1` (centres undefined): inactive: -38.9%; for `CC(C)(C)OC(=O)N1CCC(c2c(C(=O)N3CCN(c4ccccn4)CC3)cnn2-c2ccc(F)cc2F)CC1`: inactive: -7.54%.
For the molecule `Cc1ccc(-c2cnc(C3CC3)o2)cc1S(=O)(=O)Nc1cccc(C)c1C`, the activation is inactive: -1.75%.
Under `CC(C)(C)c1ccc(C(=O)NCC(=O)OCc2cc(=O)n3nc(C4CC4)sc3n2)cc1` stands inactive: -14%.
For the molecule `COc1ccc(NC(=O)C2CCCN(S(=O)(=O)c3c(C)[nH]c(=O)[nH]c3=O)C2)cc1OC` (centres undefined), the activation was inactive: 8.38%.
As to `CCN1CCN(c2csc3ccc(Br)cc3c2=O)CC1`, the activation is inactive: -29.6%.
With `CCn1c(=O)c2cc(C(=O)NCc3cc(OC)ccc3OC)sc2c2ccccc21`, the activation was inactive: 2.39%.
The same measure for `Cc1ccc(NC(=O)C2CCCN(c3ncnc4c3nc3n4CCCCC3)C2)c(Br)c1` (centres undefined): inactive: 14%.
For `COC(=O)c1c(NC(=O)c2ccc(OC)cc2OC)sc2c1CCCCC2`, the activation is inactive: -11.3%.
For `COc1ccc(CC(C)NS(=O)(=O)c2ccc3c(c2)CCN3S(C)(=O)=O)cc1OC` (centres undefined), the activation is inactive: 5.31%.
As to `COc1ccc(NC(=O)c2oc3ccccc3c2NC(=O)c2cc(=O)c3cc(Cl)ccc3o2)cc1`, the activation was inactive: -0.0367%.
Take `COc1ccc(Cl)cc1NCc1nnc2n1CCCCC2`: the activation was inactive: 5.41%.
The same measure for `Cc1ccc(NC(=O)Cn2c(=O)c(C(F)(F)F)nc3ccccc32)cc1C`: inactive: -5.23%.
In the case of `CCOC(=O)c1ccccc1NC(=O)Cn1nnc2sc3c(c2c1=O)CCCC3`, the activation is inactive: -12.7%.
As for `Cc1ccc(C(C(=O)NC2CCCCC2)N(C)Cc2ccccc2)cc1` (centres undefined), the activation was inactive: -13%.
As for `CCc1cccc(CC)c1NC(=O)CCS(=O)(=O)c1ccc(Br)s1`, the activation is inactive: 8.27%.
On to `Cc1oc2c(c1C(=O)Nc1ccc(F)c(F)c1)C1=NCCN1C=N2`, for which the activation was inactive: 2.49%.
Regarding `CCOc1ccc(NC(=O)c2oc3ccccc3c2NC(=O)C2CCCCC2)cc1`, the activation was inactive: -0.449%.
The same measure for `Cn1cc(-c2cc3n(n2)CCC(=O)N3CCCC(=O)NCc2ccc(F)cc2)c2ccccc21`: inactive: -4.93%; for `CCOC(=O)c1ccccc1Nc1nc2ccc(C)cc2n2nnnc12`: inactive: 6.07%; for `Cc1cccc(C)c1NC(=O)c1nc(S(C)(=O)=O)ncc1N(Cc1ccc(C(C)(C)C)cc1)Cc1ccco1`: inactive: -18.4%.
As for `CCN1CCN(Cc2c(O)ccc3oc(C)c(C(=O)Nc4ccc(OC)cc4)c23)CC1`, the activation is inactive: 3.26%.
As to `CC(C)CNC(=O)N1CCN(S(=O)(=O)c2ccc3c(ccn3C)c2)CC1`, the activation was inactive: -3.81%.
For `Cc1ccc(NC(=O)CSc2nc3nc(C)c(Cc4ccccc4)c(C)n3n2)cc1`, the activation is inactive: -9.93%.
As for `N#C/C(=C\c1ccc(O)c(O)c1)C(=O)NCCCc1ccccc1`, the activation is inactive: -17.1%.
Regarding `Cc1ccc2oc3c(c(=O)c2c1)C(c1ccccc1F)N(c1ccccn1)C3=O` (centres undefined), the activation was inactive: 0.673%.
Under `CCCCCCCCCCCCCCCC(=O)O` stands inactive: -8.37%; under `COc1ccc(-c2cc(C(F)(F)F)n3nc(C(=O)Nc4cc(C(F)(F)F)ccc4Cl)cc3n2)cc1OC`, inactive: -2.42%; under `COc1ccc(Cn2ccnc2SCC(=O)Nc2ccc3c(c2)OCO3)cc1`, inactive: -5.61%.
With `COc1ccc(NC(=O)Cn2cc(S(=O)(=O)N3CCC(C)CC3)c3ccccc3c2=O)cc1Cl`, the activation was inactive: -21.1%.
Take `COc1ccc2c(c1)c1c(c(=O)n(-c3ccc(C)cc3)c(=O)n1CC(=O)c1ccc(Cl)cc1)n2C`: the activation was inactive: 28.1%.
Under `Cc1ccc(C)c(CNS(=O)(=O)c2ccc3c(c2)C(C)(C)C(=O)N3C)c1` stands inactive: -9.21%; under `CC1CCN(S(=O)(=O)c2ccc3c(c2)N(CC(=O)NCCN(C)C)C(=O)CO3)CC1`, inactive: -3.65%.
`Cc1ccccc1C(=O)Nc1cccc(OCc2cc(=O)n3c4c(sc3n2)CCCC4)c1`: the activation is inactive: 14.4%.
For the molecule `CC1CCN=C(N)S1` (centres undefined), the activation was inactive: 3.4%.
Under `COc1ccc2c(CNCCc3ccccc3C)c(C(=O)O)n(Cc3ccccc3C)c2c1` stands inactive: -3.01%.
